Some of the results follow.
Tests used:
HSkMC = human skeletal muscle cells; test: cytotoxicity call (relative viability < 0.9); conditions: 10 µM
S. aureus RN4220 = test: growth inhibition call (relative growth <= 0.2); conditions: 50 µM

| SMILES | cytotoxicity call (HSkMC) | growth inhibition call (S. aureus RN4220) |
| --- | --- | --- |
| Oc1ccccc1-c1ccccc1 | inactive | inactive |
| N#Cc1cccnc1N1CCNCC1 | inactive | inactive |
| CC(=O)Nc1cc([As](=O)(O)O)ccc1O | inactive | inactive |
| NCC[C@H](NC(=O)[C@@H](N)CCCNC(N)=N[N+](=O)[O-])C(N)=O.O=CC(F)(F)F | inactive | inactive |
| Cc1cc2ccccc2n1CCN | inactive | inactive |
| O=C1NC(=S)NC(=O)C1CN1CCOCC1 | inactive | inactive |
| N#[N+]CC(=O)OC[C@H](N)C(=O)O | inactive | inactive |
| C[C@@H]1CN([C@@H](C)CO)C(=O)CCCn2nncc2CO[C@H]1CN(C)C(=O)Oc1ccc2ccccc2c1 | inactive | inactive |
| O=C([C@H]1CCCO1)N1CCCN2CCC[C@H]2C1 | inactive | inactive |
| CC(C)(C)[C@]1(O)C[C@@H]2OC(=O)C[C@@]23C(=O)O[C@@H]2OC(=O)[C@H](O)[C@]213 | inactive | inactive |
| CN(C)[C@@H]1C(=O)C(C(N)=O)=C(O)[C@@]2(O)C(O)=C3C(=O)c4c(O)cccc4[C@](C)(O)[C@H]3C[C@@H]12 | inactive | active |
| O=C(NC(=O)c1c(F)cccc1F)Nc1cc(Cl)c(OC(F)(F)[C@@H](F)C(F)(F)F)cc1Cl | active | inactive |
| CC1CCC2(NC1)OC1CC3C4CCC5CC(O)CCC5(C)C4CCC3(C)C1C2C.Cl (configuration not stated) | inactive | inactive |
| O=C(NCc1ccccc1)[C@H]1C[C@H]2CNC[C@H]1O2 | inactive | inactive |
| N#C[C@H]1NCc2cnnn2-c2ccccc21 | inactive | inactive |
| CCn1nnnc1N | inactive | inactive |
| [NH2][Pt]1([NH2])[O]C(=O)C2(CCC2)C(=O)[O]1 | inactive | inactive |
| Cc1cccnc1N1CCNCC1 | inactive | inactive |
| Cc1cccc(Cc2c[nH]cn2)c1C.Cl | inactive | inactive |
| COc1ccc2c(c1O)-c1c(OC)c(OC)cc3c1C(C2)N(C)CC3 (configuration not stated) | inactive | inactive |
| COC(=O)[C@H]1CNCCN1c1ccccc1 | inactive | inactive |
| O=C(O)[C@H]1N[C@H]2CC[C@@H]1C2 | inactive | inactive |
| COc1ccc(OC(=O)N(C)C[C@@H]2OCc3ccccc3-c3c(n(C)c4ccccc34)C(=O)N([C@@H](C)CO)C[C@@H]2C)cc1 | inactive | inactive |

| SMILES | cytotoxicity call (HSkMC) | growth inhibition call (S. aureus RN4220) |
| --- | --- | --- |
| CC(COc1ccc(Oc2ccccc2)cc1)Oc1ccccn1 (configuration not stated) | inactive | inactive |
| N[C@@H](C(=O)O)c1nn[nH]n1 | inactive | inactive |
| COC(=O)[C@]1(Cc2ccccc2N=[N+]=[N-])N=C(c2ccc(OCCCO)cc2)O[C@@H]1c1ccccc1CN=[N+]=[N-] | inactive | inactive |
| Cc1ccc(C[C@H]2CCCN2)cc1C | inactive | inactive |
| N[C@H]1CNC(=O)C1 | inactive | inactive |
| CC1(C)CCC(C)(C)c2cc(-c3csc(CC#N)n3)ccc21 | inactive | inactive |
| CCn1cc(C(=O)[O-])c(=O)c2cc3c(cc21)OCO3.[K+] | inactive | inactive |
| C[C@@H]1CN([C@H](C)CO)C(=O)CCCn2nncc2CO[C@@H]1CN(C)C(=O)Oc1ccc2ccccc2c1 | inactive | inactive |
| C[C@@H]1CN([C@@H](C)CO)C(=O)CCCn2nncc2CO[C@@H]1CN(C)C(=O)Oc1cccc2ccccc12 | inactive | inactive |
| CN(C)C(=O)[C@H]1CCC2(CCNCC2)CO1 | inactive | inactive |
| CNCC(=O)c1ccc(O)c(O)c1 | inactive | inactive |
| O=C(O)CC[N+](=O)[O-] | inactive | inactive |
| CC=C(C)C(=O)OC1CCC2(C)C3CCC4C5(O)CC(O)C6(O)C(CN7CC(C)CCC7C6(C)O)C5(O)CC42OC13O.Cl (configuration not stated) | inactive | inactive |
| c1nc(N2CCN3CCC[C@H]3C2)c2[nH]cnc2n1 | inactive | inactive |
| CNCC(=O)c1ccc(O)cc1 | inactive | inactive |
| CC(=O)[O][PbH2][O]C(C)=O | inactive | inactive |
| C1CNC[C@@H](N2CCCC2)C1 | inactive | inactive |
| NCCc1cc(O)c(O)cc1O | inactive | inactive |
| CC(C)[C@H]1CN2CCC[C@H]2[C@@]2(O)O[C@](CC(=O)[C@@H]3C=C4c5cccc6[nH]cc(c56)C[C@H]4N(C)C3)(C(C)C)C(=O)N12 | inactive | inactive |
| CCN1C[C@]23CNC[C@@H](C[C@H]2S1(=O)=O)O3 | inactive | inactive |
| CC(=O)Oc1ccc(C=Cc2cc(OC(C)=O)cc(OC(C)=O)c2)cc1 | inactive | inactive |
| Cc1[nH]c2ccc(O)cc2c1CCN | inactive | inactive |
| CC[C@H]1/C=C/C=C/C[C@@H](C)[C@H](O)[C@@](C)(O)C(=O)[C@@H](C)[C@H](O)[C@@H](C)C(=O)[C@@H](C)[C@H](O)[C@@H](C)/C=C/C(=O)O[C@@H]2[C@H](C)[C@H](CC1)O[C@]1(CC[C@H](C)[C@H](C[C@@H](C)O)O1)[C@H]2C | active | inactive |

| SMILES | cytotoxicity call (HSkMC) | growth inhibition call (S. aureus RN4220) |
| --- | --- | --- |
| CCOC(=O)[C@H]1[C@@H](C=C(C)C)C1(C)C | inactive | inactive |
| C[N+](C)(C)CCCCCCCCCC[N+](C)(C)C.[Br-].[Br-] | inactive | inactive |
| CC[C@@H](C(=O)[C@@H](C)[C@@H](O)[C@H](C)[C@@H]1O[C@@H]([C@@H](CC)C(=O)O)CC[C@@H]1C)[C@H]1O[C@]2(C=C[C@@H](O)[C@]3(CC[C@@](C)([C@H]4CC[C@](O)(CC)[C@H](C)O4)O3)O2)[C@H](C)C[C@@H]1C | active | active |
| COC(=O)C1(O)C[C@H]2CC[C@@H](C1)N2C (some centres not stated) | inactive | inactive |
| C[C@H](N)Cn1ccc2cc(F)c(Cl)cc21 | inactive | inactive |
| C[C@@H](N)Cc1ccc2occc2c1 | inactive | inactive |
| NCCc1cccs1 | inactive | inactive |
| N=C(N)NO | inactive | inactive |
| C[C@@H](N)Cc1c[nH]c2ccc(O)cc12 | inactive | inactive |
| CS(=O)(=O)c1ccc(C(=O)C2C(=O)CCCC2=O)c([N+](=O)[O-])c1 | inactive | inactive |
| O=[N+]([O-])O[C@@H]1CO[C@H]2[C@@H]1OC[C@@H]2O | inactive | inactive |
| OC[C@H]1O[C@@H](Oc2ccc(/C=C/c3cc(O)cc(O)c3)cc2O)[C@H](O)[C@@H](O)[C@@H]1O | inactive | inactive |
| NCCc1[nH]nc2c1CCCC2 | inactive | inactive |
| N=C(N)N/N=C/c1ccc2c(c1)OCO2 | inactive | inactive |
| CN1C[C@H]2CON[C@@H]2C1 | inactive | inactive |
| C=CC1CN2CCC1CC2C(OC(=O)OCC)c1ccnc2ccc(OC)cc12 (configuration not stated) | inactive | inactive |
| Cc1nc(N)sc1CCN | inactive | inactive |
| CN1C[C@@H](C(=O)O)CN2CCN(C(=O)c3ccncc3F)C[C@@H]2C1 | inactive | inactive |
| C=CCN1CCC23c4c5ccc(O)c4OC2C(=O)CCC3(O)C1C5.Cl (configuration not stated) | inactive | inactive |
| CN(C)[C@@H](CN)c1cccc(C(F)(F)F)c1 | inactive | inactive |
| N#CCCN.O=C(O)C=CC(=O)O | inactive | inactive |
| O=S(=O)(N[C@H]1CCO[C@]2(CCNC2)C1)C1CC1 | inactive | inactive |
| CCNC(=O)[C@H]1O[C@H](n2cnc3c(N)ncnc32)[C@@H](O)[C@@H]1O | inactive | inactive |

| SMILES | cytotoxicity call (HSkMC) | growth inhibition call (S. aureus RN4220) |
| --- | --- | --- |
| CC12CCC(=O)C=C1CCC1C2CCC2(C)C(O)CCC12 (configuration not stated) | inactive | inactive |
| Cc1cc(C2=NO[C@](c3cc(Cl)cc(Cl)c3)(C(F)(F)F)C2)ccc1C(=O)NCC(=O)NCC(F)(F)F | active | inactive |
| Cl.N=C(N)NN | inactive | inactive |
| C#CCN(C)C(C)Cc1ccccc1.Cl (configuration not stated) | inactive | inactive |
| O=C(O)c1ccc(=O)[nH]c1 | inactive | inactive |
| O[C@H]1C2CN3CCN(C2)CC1(c1ccccc1)C3 | inactive | inactive |
| CN1C[C@@H]2c3nc(N(C)C)ncc3CS(=O)(=O)[C@H]2C1 | inactive | inactive |
| NC1(Cc2ccc(Cl)cc2)CC1 | inactive | inactive |
| COCCCNC(=O)[C@]1(Cc2ccccc2N=[N+]=[N-])N=C(c2ccc(OCCCO)cc2)O[C@@H]1c1ccccc1N=[N+]=[N-] | inactive | inactive |
| O[C@H]1CNC[C@@H]1N1CCCC1 | inactive | inactive |
| C=CCC1(O)CCC2C3CCC4=CCCCC4C3CCC21C (configuration not stated) | active | inactive |
| N#CCCN1CCCC2(CCCC2)C1 | inactive | inactive |
| CC(C)(C)NCC(O)c1cc(Cl)c(N)c(Cl)c1.Cl (configuration not stated) | inactive | inactive |
| C[C@H]1C[C@@H]2CNC[C@@H]2O1 | inactive | inactive |
| OCC(CO)N1CCC2(CCNCC2)CC1 | inactive | inactive |
| c1cnc(N[C@@H]2CO[C@@]3(CCNC3)C2)cn1 | inactive | inactive |
| COc1cc2c(c(OC)c1OC)-c1ccc(O)c(=O)cc1C(NC(C)=O)CC2 (configuration not stated) | inactive | inactive |
| O=C(OC1CC2CCC(C1)[N+]21CCCC1)C(O)(c1ccccc1)c1ccccc1.[Cl-] (configuration not stated) | inactive | inactive |
| CN(C)C(=O)Oc1cccc([N+](C)(C)C)c1.COS(=O)(=O)[O-] | inactive | inactive |
| CCC(CO)NC(=O)C1C=C2c3cccc4c3c(cn4C)CC2N(C)C1.O=C(O)C=CC(=O)O (configuration not stated) | inactive | inactive |
| C/C=C(\C)C(=O)O[C@H]1C[C@@H](OC(C)=O)[C@@]2(C(=O)OC)CO[C@H]3[C@@H](O)[C@@](C)([C@]45O[C@@]4(C)[C@H]4C[C@@H]5O[C@H]5OC=C[C@@]54O)[C@H]4[C@]1(CO[C@]4(O)C(=O)OC)[C@@H]32 | inactive | inactive |
| CO[C@H]1[C@H](O)[C@@H](O[C@H]2[C@@H](C)O[C@@H](O[C@H]3[C@H](C)O[C@H](O[C@H]4CC[C@@]5(C)[C@@H](CC[C@@]6(O)[C@@H]5C[C@@H](O)[C@]5(C)[C@]6(O)CC[C@@]5(O)[C@@H](C)O)C4)C[C@@H]3OC)C[C@H]2OC)O[C@@H](C)[C@H]1O | inactive | inactive |

From the antibiotic and cytotoxicity screens of Wong et al. (2023)
